GI50 and TGI data for two compounds are collected here from PubChem BioAssay (NCI).

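Briefly, cells in 96-well plates were exposed to five compound concentrations for 48 h, and endpoints were estimated by linear interpolation. GI50 marks 50% less growth. The concentration for full growth arrest is given as TGI.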 A value given as a limit tells only on which side of the number the result lay.

The assay concerns NCI-H322M lung. Briefly: DTP human tumour cell line panel, 48 h.

Broadly, the GI50 is the concentration giving 50% growth inhibition. Usually TGI stands for the concentration at which net growth stops.

For the compound `O=C(CSc1nc2sc3c(c2c(=O)n1-c1ccc(Cl)cc1)CCCC3)NNC(=O)Nc1ccc(Cl)c(C(F)(F)F)c1`, the GI50 is 4.95 µM and the TGI is more than 100 µM.
For `Oc1ccccc1/C=N/Nc1nc(N/N=C/c2ccccc2O)nc(N2CCOCC2)n1`, in that order: 4.55 µM and more than 100 µM.
